Data from PubChem BioAssay AID651820 (National Center for Advancing Translational Sciences (NCATS), 2012).
Where “and” joins values, the source holds several entries; their conditions need not be identical. Identical values can stand only once. Screen size: about 340,000 compounds; about 12,000 (3.5%) were called active. The inconclusive results got no clear call from the source; some entries with a clear call stand among them for comparison. The call rests on the fitted dose curve; in most records, active means well fitted inhibition curve with a large enough effect; inconclusive means small, poorly fitted or top-dose-only effect, or another doubt; inactive means no such curve, though single readings can be large or run the other way. Potencies beside an inconclusive call are fits to weak or partial responses and may not hold up.

Assay: qHTS Assay for Inhibitors of Hepatitis C Virus (HCV)
Details: Huh7.5.1 HCVcc-Cre (HCVcc is cell-culture hepatitis C virus) infection, luciferase reporter, 44 h; activity change, negative = inhibition: at 41.8 µM (top of the series) unless noted
How it was run: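 Luciferase read-out (15 sec integration) after a 15 min room-temperature substrate step quantifies HCVcc-Cre infection. Cells, 1,000 per well, had compound added 4 h post-plating, then virus at ~0.5 moi, and were cultured 44 h.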
On the % scale 0 is the no-effect control and ±100 the full control effect; potency means the concentration at half of the fitted maximal effect; tags describe the fitted curve by direction and shape.

| SMILES | Potency | activity change, negative = inhibition |
| --- | --- | --- |
| CCCCOc1ccc(CSCCNC(=S)Nc2ccccc2)cc1 | inconclusive: 20 µM [inhibitor, partial curve, poor fit] |  |
| CC1(C)CC(NC(=O)Nc2ccc([N+](=O)[O-])cc2)CC(C)(C)N1 |  | inactive: -15.1% |
| Cc1nn(-c2ccccc2)c(N2CCCC2)c1/C=N/O |  | inactive: -15.1% |
| CN1CCN(NC(=O)c2ccc(Cl)c([N+](=O)[O-])c2)CC1 |  | inactive: -3.68% |
| COc1cccc(Oc2ccc(C(F)(F)F)cc2NC(=O)CCc2nc3ccccc3c(=O)[nH]2)c1 | inconclusive: 7.94 µM [inhibitor, partial curve, poor fit] |  |
| NC(=O)CC(NC(=O)c1cccc(Br)c1)c1ccc(N2CCCCCC2)c([N+](=O)[O-])c1 (stereo not drawn) | inconclusive: 12.6 µM [inhibitor, single point] |  |
| COc1ccc(C(=O)N/N=C/c2sc(N3CCOCC3)nc2-c2ccccc2)cc1OC | inconclusive: 7.08 µM [inhibitor, partial curve, poor fit] |  |
| CC(C)CC(C)N (stereo not drawn) | inconclusive: 0.501 µM [inhibitor, partial curve, poor fit] |  |
| CC1CC1C(=O)Nc1cc(S(=O)(=O)N2CCOCC2)ccc1N1CCCC1 (stereo not drawn) | active: 10 µM |  |
| COc1ccc(Oc2nc(-c3ccccn3)nc3ccccc23)cc1 | active: 12.6 µM |  |
| COc1ccc(C(CNS(=O)(=O)c2ccc(C)cc2)N2CCN(C)CC2)cc1 (stereo not drawn) | inconclusive: 3.98 µM [inhibitor, single point] |  |
| COc1cc(-c2[nH]ncc2CN2CCSCC2)cc(OC)c1OC | inconclusive: 5.62 µM [inhibitor, single point] |  |
| CCSc1nnc(C)c2ccccc12 | inconclusive: 6.31 µM [inhibitor, full curve] |  |
| Cc1ccc(NC(=O)CN(C)C(C)C(=O)Nc2ccc(S(=O)(=O)N3CCCC3)cc2)cc1 (stereo not drawn) | inconclusive: 10 µM [inhibitor, partial curve] |  |
| O=C1CC(N2CCN(c3ccccc3)CC2)C(=O)N1c1ccc(Cl)cc1 (stereo not drawn) |  | inactive: 20.6% |
| CCN(CC(=O)NCc1ccc(F)cc1)CC(=O)Nc1cc(S(=O)(=O)N(C)C)ccc1C | inconclusive: 11.2 µM [inhibitor, partial curve] |  |
| OCCCN1c2ccccc2Nc2nnc(-c3ccccc3)cc21 | inconclusive: 14.1 µM [inhibitor, single point] |  |
| COc1ccc(OC)c2nc(-c3ccncc3)ccc12 | inconclusive: 10 µM [inhibitor, partial curve] |  |
| CN1CCN(CCOCCOc2ccc(Br)cc2Cl)CC1 | inconclusive: 14.1 µM [inhibitor, single point] |  |
| COC(=O)Cc1ccc(NC(=S)N2CCN(c3ccccn3)CC2)cc1 |  | inactive: -11.4% |
| Cc1cccc(C)c1NC(=S)NC1CCCCC1 |  | inactive: -4.87% |
| COc1cccc(CN(C)CC(=O)Nc2ccccc2C(=O)Nc2ccccc2)c1OC | inconclusive: 11.2 µM [inhibitor, partial curve, poor fit] |  |

| SMILES | Potency | activity change, negative = inhibition |
| --- | --- | --- |
| Cc1ccccc1Nc1nc(-c2cccnc2)cs1 | inconclusive: 31.6 µM [inhibitor, single point] |  |
| Cc1cccc(NCc2ccc(O)c3ncccc23)c1 | active: 7.08 µM |  |
| O=C(CSc1nnc(NC(=O)c2ccc(F)cc2F)s1)NC1CCCC1 | inconclusive: 5.62 µM [inhibitor, single point] |  |
| Cc1cc(SCC(=O)N/N=C/c2ccc(O)c(O)c2O)c(C)cc1Br | inconclusive: 10 µM [inhibitor, partial curve] |  |
| CCOC(=O)c1ccc(NC(=O)c2cc(S(=O)(=O)N3CCOCC3)cn2C)cc1 | inconclusive: 3.98 µM [inhibitor, partial curve] |  |
| Cc1ccc(-c2nc(C#N)c(N3CCCCC3)o2)cc1 | inconclusive: 31.6 µM [inhibitor, single point] |  |
| O=C(Oc1ccccc1/C=C\C(=O)c1cc2ccccc2o1)c1ccccc1 | inconclusive: 10 µM [inhibitor, partial curve] |  |
| Cc1cc(C)c(NC(=S)N(CCCN2CCN(C)CC2)Cc2cccs2)c(C)c1 | inconclusive: 22.4 µM [inhibitor, single point] |  |
| CN(CC(=O)NC1CC(C)(C)NC(C)(C)C1)S(=O)(=O)c1ccc(Br)cc1 | inconclusive: 10 µM [inhibitor, single point] |  |
| O=C(NCCc1ccc(Cl)cc1)C1CCC(CNc2c(N3CCCCC3)c(=O)c2=O)CC1 (stereo not drawn) |  | inactive: -14.5% [at 8.37 µM] |
| COc1ccc(/C=N/Nc2nc(-c3ccc(Cl)cc3)cc(C(F)(F)F)n2)c(OC)c1 |  | inactive: -10.6% |
| COc1cc(-c2nnc(SCC(=O)c3cc(C)n(CC4CCCO4)c3C)o2)cc(OC)c1OC (stereo not drawn) | inconclusive: 22.4 µM [inhibitor, single point] and inconclusive: 4.47 µM [inhibitor, partial curve] |  |
| c1cc2c3c(cccc3c1)-c1cnccc1-2 | inconclusive: 11.2 µM [inhibitor, single point] |  |
| Cc1ccc(-c2nc(SCC(=O)Nc3cc(S(=O)(=O)N4CCCCC4)ccc3Cl)n[nH]2)cc1 | inconclusive: 11.2 µM [inhibitor, partial curve] |  |
| COc1ccc2nc(Nc3nc(CSc4nnnn4-c4ccccc4)cc(=O)[nH]3)nc(C)c2c1 | inconclusive: 14.1 µM [inhibitor, partial curve] |  |
| COc1ccc(N(C(=O)c2snc(C(N)=O)c2N)C(C(=O)NC2CCCC2)c2ccc3ncccc3c2)cc1 (stereo not drawn) | inconclusive: 22.4 µM [inhibitor, single point] |  |
| O=C(NNC(=O)c1ccccc1C(=O)O)c1ccc(O)cc1 | active: 12.6 µM |  |
| Cc1ccc(C(=O)NC(Cc2cccc(F)c2)C(=O)O)cc1 (stereo not drawn) | inconclusive: 14.1 µM [inhibitor, single point] |  |
| COC1CCN(C(=O)C2CCC(=O)N(CCc3cccc(F)c3)C2)CC1 (stereo not drawn) |  | inactive: 8.96% |
| O=C(c1cc(S(=O)(=O)N2CCOCC2)c(Cl)cc1Cl)N1CCCCC1 | inconclusive: 8.91 µM [inhibitor, partial curve] |  |
| COC(=O)c1scc(C)c1NC(=O)c1ccc(Cl)cc1 | inconclusive: 1 µM [inhibitor, full curve, poor fit] |  |
